No constants are given. Whether binding was seen depends on the method and setting. For some of these results: Binding seen in cells or lysates may run through a third protein. Some results given as binding are weak or reduced against the parent protein; the word gives no strength. For some of these results: Where a sequence is shown, tags or fusion partners need not be part of it.

The target in assay [1] is T1, endogenous DHX29 (THP-1 cells) (human (endogenous in THP-1)) (UniProt Q7Z478).
T1 sequence: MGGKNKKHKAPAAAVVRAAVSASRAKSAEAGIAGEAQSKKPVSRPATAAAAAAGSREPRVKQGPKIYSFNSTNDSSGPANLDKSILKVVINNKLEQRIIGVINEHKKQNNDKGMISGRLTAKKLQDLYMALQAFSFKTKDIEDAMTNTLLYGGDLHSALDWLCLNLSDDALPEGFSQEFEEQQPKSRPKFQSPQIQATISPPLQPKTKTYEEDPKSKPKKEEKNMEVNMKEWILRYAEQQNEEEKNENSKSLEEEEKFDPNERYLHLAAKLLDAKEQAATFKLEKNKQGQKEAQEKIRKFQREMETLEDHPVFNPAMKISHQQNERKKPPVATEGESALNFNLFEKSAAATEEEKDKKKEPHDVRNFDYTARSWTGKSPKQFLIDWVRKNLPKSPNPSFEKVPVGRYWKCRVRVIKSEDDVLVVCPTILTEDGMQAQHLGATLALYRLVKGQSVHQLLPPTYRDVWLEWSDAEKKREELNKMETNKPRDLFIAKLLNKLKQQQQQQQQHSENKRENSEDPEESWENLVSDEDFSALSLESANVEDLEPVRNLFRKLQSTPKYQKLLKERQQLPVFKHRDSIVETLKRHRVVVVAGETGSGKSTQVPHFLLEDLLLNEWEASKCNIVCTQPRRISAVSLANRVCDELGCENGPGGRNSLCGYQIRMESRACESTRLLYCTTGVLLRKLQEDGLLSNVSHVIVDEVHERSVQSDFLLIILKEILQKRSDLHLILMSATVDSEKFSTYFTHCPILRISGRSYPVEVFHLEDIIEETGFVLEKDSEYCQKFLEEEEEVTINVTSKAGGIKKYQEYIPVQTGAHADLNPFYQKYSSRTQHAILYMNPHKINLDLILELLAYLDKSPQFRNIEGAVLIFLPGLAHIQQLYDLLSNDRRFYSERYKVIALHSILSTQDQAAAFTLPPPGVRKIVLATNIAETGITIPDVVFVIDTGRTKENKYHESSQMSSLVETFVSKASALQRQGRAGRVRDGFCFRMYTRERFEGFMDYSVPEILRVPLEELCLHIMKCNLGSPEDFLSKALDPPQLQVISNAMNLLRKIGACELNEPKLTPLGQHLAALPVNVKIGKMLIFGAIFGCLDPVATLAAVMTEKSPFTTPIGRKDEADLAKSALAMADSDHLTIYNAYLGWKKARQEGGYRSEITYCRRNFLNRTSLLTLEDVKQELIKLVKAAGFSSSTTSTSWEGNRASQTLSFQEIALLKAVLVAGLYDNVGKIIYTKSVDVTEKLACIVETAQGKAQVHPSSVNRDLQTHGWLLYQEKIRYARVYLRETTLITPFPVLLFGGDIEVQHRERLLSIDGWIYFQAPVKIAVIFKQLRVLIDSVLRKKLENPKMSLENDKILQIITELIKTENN
Description: condition: only cells stimulated with intracellular LMW Poly(I:C); co-IP; THP-1 cells stimulated with intracellular LMW Poly(I:C) (text; the legend of S5F says HMW); immunoprecipitation with anti-DHX29 antibody, immunoblot with MDA5 antibody. (In general: Immunoblotting shows a protein as a band on a membrane.)

For assay [2], the target named is T1, endogenous DHX29 (THP-1 cells) (human (endogenous in THP-1)). Description: co-IP; THP-1 cells treated with HMW Poly(I:C) or infected with EMCV (MOI 10) at the indicated time points; immunoprecipitation with anti-DHX29 antibody, immunoblot with anti-MDA5.
Assay [3] deals with T2, Flag-MDA5 (full-length, FL-MDA5) (UniProt Q9BYX4).
T2 sequence: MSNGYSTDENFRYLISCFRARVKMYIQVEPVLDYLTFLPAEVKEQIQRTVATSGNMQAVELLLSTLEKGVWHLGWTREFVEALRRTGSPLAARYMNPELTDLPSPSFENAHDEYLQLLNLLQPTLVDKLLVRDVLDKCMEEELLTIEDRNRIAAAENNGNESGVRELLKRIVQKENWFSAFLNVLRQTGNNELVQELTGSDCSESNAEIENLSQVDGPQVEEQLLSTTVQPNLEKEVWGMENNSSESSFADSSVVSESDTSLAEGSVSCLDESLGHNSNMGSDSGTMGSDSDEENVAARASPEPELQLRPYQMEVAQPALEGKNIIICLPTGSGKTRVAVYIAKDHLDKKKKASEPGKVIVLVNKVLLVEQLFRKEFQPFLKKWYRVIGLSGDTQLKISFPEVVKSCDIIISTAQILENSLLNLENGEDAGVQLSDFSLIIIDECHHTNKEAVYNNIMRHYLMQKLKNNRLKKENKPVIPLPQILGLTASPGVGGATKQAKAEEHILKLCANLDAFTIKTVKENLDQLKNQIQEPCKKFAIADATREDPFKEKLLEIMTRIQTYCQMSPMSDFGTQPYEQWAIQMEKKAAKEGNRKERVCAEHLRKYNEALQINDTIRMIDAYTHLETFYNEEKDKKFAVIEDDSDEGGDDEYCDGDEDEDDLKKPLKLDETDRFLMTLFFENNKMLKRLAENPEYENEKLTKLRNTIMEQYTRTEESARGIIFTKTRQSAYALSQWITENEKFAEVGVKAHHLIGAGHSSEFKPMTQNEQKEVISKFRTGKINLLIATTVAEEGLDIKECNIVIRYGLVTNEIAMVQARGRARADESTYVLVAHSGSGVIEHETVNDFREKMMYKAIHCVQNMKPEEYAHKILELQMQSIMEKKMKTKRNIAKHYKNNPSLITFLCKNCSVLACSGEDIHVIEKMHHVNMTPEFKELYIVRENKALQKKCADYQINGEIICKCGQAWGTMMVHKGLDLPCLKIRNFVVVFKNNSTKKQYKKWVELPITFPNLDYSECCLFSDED
Description: pull-down; purified HA-DHX29 and Flag-MDA5 co-incubated with or without HMW Poly(I:C) for 4 h; pull-down with anti-Flag beads, immunoblot with anti-Flag or anti-HA; both purified.

Assay [4] has as its target T3, Flag-LGP2 (UniProt Q96C10).
T3 sequence: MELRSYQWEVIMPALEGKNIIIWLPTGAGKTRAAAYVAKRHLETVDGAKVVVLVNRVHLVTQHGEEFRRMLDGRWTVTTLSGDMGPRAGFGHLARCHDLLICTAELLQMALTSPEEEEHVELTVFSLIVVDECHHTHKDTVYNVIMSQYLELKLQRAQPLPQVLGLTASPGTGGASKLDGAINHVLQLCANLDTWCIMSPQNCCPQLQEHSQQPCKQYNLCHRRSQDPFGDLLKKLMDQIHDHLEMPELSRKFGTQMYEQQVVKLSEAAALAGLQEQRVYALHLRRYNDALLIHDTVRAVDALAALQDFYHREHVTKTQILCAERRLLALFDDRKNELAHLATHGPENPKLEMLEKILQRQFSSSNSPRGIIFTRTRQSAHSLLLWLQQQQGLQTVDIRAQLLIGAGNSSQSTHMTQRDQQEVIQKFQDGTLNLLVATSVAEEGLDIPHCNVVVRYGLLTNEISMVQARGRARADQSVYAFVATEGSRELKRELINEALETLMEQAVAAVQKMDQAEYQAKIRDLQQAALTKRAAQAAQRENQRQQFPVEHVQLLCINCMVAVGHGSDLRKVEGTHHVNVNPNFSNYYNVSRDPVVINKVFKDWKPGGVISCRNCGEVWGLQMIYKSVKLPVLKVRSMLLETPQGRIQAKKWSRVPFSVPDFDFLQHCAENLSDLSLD
Description: condition: only stringent lysis buffer containing 1% Triton X-100; co-IP; 293T cells transfected with HA-DHX29 and Flag-RIG-I, Flag-MDA5 or Flag-LGP2, various kinds of stimulation (8 hr; EMCV 6 hr); stringent lysis buffer containing 1% Triton X-100; anti-Flag beads, immunoblot with anti-HA.

Assay [5] addresses T2, Flag-MDA5 (full-length, FL-MDA5). Description: co-IP; 293T cells cotransfected; whole cell lysates immunoprecipitated with anti-Flag beads, immunoblotted with anti-HA and anti-Flag (S5A, Fig 5I, S6A); in S5E with 20 ng Flag-MDA5 and intracellular HMW Poly(I:C) at the indicated time points.
The target in assay [6] is T3, Flag-LGP2. Description: co-IP; as S5G and S5H but less stringent cell lysis buffer containing 0.1% NP-40; anti-Flag beads, immunoblot with anti-HA.
For assay [7], the target named is T2, Flag-MDA5 (full-length, FL-MDA5). Description: co-IP; 293T cells transfected with HA-DHX29 and Flag-RIG-I, Flag-MDA5 or Flag-LGP2, various kinds of stimulation (8 hr; EMCV 6 hr); stringent lysis buffer containing 1% Triton X-100; anti-Flag beads, immunoblot with anti-HA.

B1: endogenous MDA5 (THP-1 cells) (protein, UniProt Q9BYX4 1-1025)
chain: T2 sequence
On to B1, for which the binding result in assay [1] is reported as “no binding”; in assay [2], “binds”.

B2: HA-DHX29 (full-length, FL-DHX29) (protein, UniProt Q7Z478 1-1369)
chain: T1 sequence
As for B2, the binding entry in assay [3] is “binds”; with Flag-LGP2 [4] it was “no binding”; in assay [5], “binds”; with Flag-LGP2 [6], “binds weakly”; in assay [7] it was “binds”.
